Source: publication PMC4336329 (PLoS ONE, 2015)
About 2,200 (0.71%) of roughly 310,000 compounds showed an effect of 50% or more. Effects have a minus sign here. The list shows a part of the results.

Target: human ether-à-go-go-related gene (hERG) potassium channel (human, UniProt Q12809)
Experiment: primary screen, population patch clamp on CHO cells stably expressing hERG

Sequence of human ether-à-go-go-related gene (hERG) potassium channel (Q12809 whole entry, looked up): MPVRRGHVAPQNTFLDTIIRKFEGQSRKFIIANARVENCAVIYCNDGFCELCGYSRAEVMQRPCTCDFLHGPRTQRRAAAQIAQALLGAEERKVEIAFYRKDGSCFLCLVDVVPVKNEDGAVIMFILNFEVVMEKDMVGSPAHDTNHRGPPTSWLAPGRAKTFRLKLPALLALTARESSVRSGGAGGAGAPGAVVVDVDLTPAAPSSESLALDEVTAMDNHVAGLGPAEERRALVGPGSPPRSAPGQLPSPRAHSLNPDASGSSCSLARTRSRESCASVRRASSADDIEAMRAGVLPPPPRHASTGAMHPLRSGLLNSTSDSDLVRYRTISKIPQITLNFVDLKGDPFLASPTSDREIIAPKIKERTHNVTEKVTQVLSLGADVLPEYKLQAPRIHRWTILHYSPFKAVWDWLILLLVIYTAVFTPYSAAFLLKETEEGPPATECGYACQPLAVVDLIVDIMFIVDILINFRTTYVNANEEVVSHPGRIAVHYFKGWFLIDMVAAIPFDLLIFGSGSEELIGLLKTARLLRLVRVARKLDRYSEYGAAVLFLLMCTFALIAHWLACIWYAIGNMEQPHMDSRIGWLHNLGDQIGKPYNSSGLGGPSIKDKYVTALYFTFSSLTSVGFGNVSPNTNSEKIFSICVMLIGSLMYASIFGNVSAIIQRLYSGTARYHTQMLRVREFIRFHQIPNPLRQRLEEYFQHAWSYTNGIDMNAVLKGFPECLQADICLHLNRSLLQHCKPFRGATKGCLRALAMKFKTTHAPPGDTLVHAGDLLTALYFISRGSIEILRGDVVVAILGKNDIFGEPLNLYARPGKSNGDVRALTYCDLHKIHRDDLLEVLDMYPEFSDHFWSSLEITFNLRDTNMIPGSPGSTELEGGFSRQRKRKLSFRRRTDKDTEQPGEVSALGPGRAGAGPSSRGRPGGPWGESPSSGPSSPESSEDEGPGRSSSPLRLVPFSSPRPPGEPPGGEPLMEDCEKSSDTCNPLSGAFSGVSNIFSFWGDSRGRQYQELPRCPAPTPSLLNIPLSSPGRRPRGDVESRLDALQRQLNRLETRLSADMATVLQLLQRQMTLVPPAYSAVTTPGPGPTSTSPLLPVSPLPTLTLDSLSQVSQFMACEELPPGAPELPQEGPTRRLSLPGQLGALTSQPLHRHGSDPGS

Compound	hERG current change (%, negative = inhibition) at 1uM [%]
COC(=O)c1c(NC(NC(=O)C(C)C)C(Cl)(Cl)Cl)sc2c1CCCC2 (stereo not shown)	3.52
Cc1cccc(Cc2c(C)nc3nc(SCC(=O)NCc4ccco4)nn3c2C)c1	-4.6
Cc1nc(C)c(C(=O)N2CCCC(C(=O)c3cc(F)ccc3F)C2)s1 (stereo not shown)	13.6
COc1ccc2c(c1)cc(C(=O)N[C@@H](Cc1ccccc1)C(=O)O)n2C	22.4
CCCOc1ccc(C(=O)NCC2OCCc3ccccc32)cc1OC (stereo not shown)	5.57
Cc1ccc(CNc2ncnc3cc(Cl)ccc23)cc1	12.5
COc1ccc(C(=O)NC(CC(=O)O)c2cc([N+](=O)[O-])ccc2Cl)c(SC)c1 (stereo not shown)	17
CCc1cc(=O)oc2cc(OC(C)C(=O)NCC(O)c3ccccc3)c(Cl)cc12 (stereo not shown)	10.3
O=C(Nc1ccc(N2CCOCC2)c(Cl)c1)c1ccc(F)cc1	3.51
CCOC(=O)c1sc2nc3n(c(=O)c2c1C)CCCCC3	2.34
C/C(=N\NC(=O)c1c(Br)c(C)nn1C)c1ccc(NC(=O)c2ccoc2C)cc1	15.3
O=c1oc(-c2cccc(C(F)(F)F)c2)nn1-c1ccc(C(F)(F)F)cn1	5.56
COc1ccc(C2(C)NC(=O)N(CC(=O)N3CCc4ccccc43)C2=O)cc1OC (stereo not shown)	4.02
Cc1cc(OCc2cc(C(=O)N(C)Cc3nonc3C)no2)cc(C)c1Cl	18.2
CCN(CC(=O)Nc1c(F)cccc1F)C(=O)Cc1ccsc1	5.42
CCOc1ccc(CCNC(=O)COC(=O)c2nc(Cl)ccc2Cl)cc1OCC	7.43
Nc1nnn(CC(=O)N/N=C/c2ccccc2)n1	10.6
CCOC(=O)c1ccc(Nc2nnc(C)c3ccccc23)cc1	2.96
Cc1ccc2nc(SC(C)C(=O)Nc3cccc([N+](=O)[O-])c3)[nH]c2c1 (stereo not shown)	6.02
COc1ccc(CCNC(=O)C2CC(c3cc(C(F)(F)F)cc(C(F)(F)F)c3)=NO2)cc1 (stereo not shown)	4.15
CCn1c(O)c(N=NC(=S)NCC2CCCO2)c2ccccc21 (stereo not shown)	9.68
O=C(Cn1cnc2cc([N+](=O)[O-])ccc2c1=O)NCCc1ccc(Cl)cc1	0.659

Compound	hERG current change (%, negative = inhibition) at 1uM [%]
Cn1c(CC(=O)Nc2ccccc2F)nnc1SCC(=O)Nc1nccs1	15.2
CN(C)S(=O)(=O)c1cccc(NC(=O)CSc2nc3c(cc2C#N)C(=O)CC(C)(C)C3)c1	7.99
COc1ccc(CNC(=O)Cn2ncn3c(cc4ccccc43)c2=O)cc1	4.96
COc1ccc(N(CCC(=O)Nc2ccccc2F)S(=O)(=O)c2ccc(C)cc2C)cc1	10.1
Cc1c(OCC(=O)NCC2CCC(C(=O)O)CC2)ccc2c(-c3ccccc3)cc(=O)oc12 (stereo not shown)	19
CCOc1ccc(NC(=O)CC2S/C(=N/N=C3CCCCCC3)NC2=O)cc1 (stereo not shown)	19.2
Cc1ccc(NS(=O)(=O)c2cccs2)nc1	-3.66
CCN(C#N)c1nc(NC(C)C)nc(NC(C)(C)C)n1	11.7
CC(C)Sc1nnc(SCC(=O)NCCCN2CCCC2=O)s1	4.41
C=CCC1NS(=O)(=O)OC(CCc2ccccc2)C1O (stereo not shown)	5.53
COC(=O)c1sc(N2C(=O)C(O)=C(C(=O)c3ccc(C)o3)C2c2ccc([N+](=O)[O-])cc2)nc1C (stereo not shown)	10.1
CC1=NN(c2cccc(Cl)c2)C(=O)C12CC(C)=C(C)CS2 (stereo not shown)	14.1
CS(=O)(=O)N1CCN(C(=O)Nc2ccccc2)CC1	18.2
O=C1c2cccc([N+](=O)[O-])c2C(=O)N1c1c[nH]c(=O)[nH]c1=O	9.03
O=C1CC(N2CCN(C3CCc4ccccc4C3)CC2)C(=O)N1c1ccccc1 (stereo not shown)	-42.7
COc1ccc(C(C#N)c2nc3ccccc3nc2Cl)cc1 (stereo not shown)	5.81
COc1cc(CN2CCC(C(=O)NCCC(C)C)CC2)ccc1OCc1ccccc1.O=C(O)C(=O)O	-46.6
Cc1ccc(C(=O)Nc2ccc(Cl)cc2C(F)(F)F)c(Cl)c1	2.52
CCc1ccc(-c2cc3c(=O)n(CC(=O)NCc4ccccc4F)ncn3n2)cc1	10.3
CCCCN(CC)S(=O)(=O)c1ccc(C(=O)Nc2nnc(COC)o2)cc1	7.62
CC(C)(Oc1ccc(Cl)cc1)C(=O)NCc1n[nH]c(=O)c2ccccc12	0.988
O=C(NC(NC(=S)Nc1cccc(C(=O)O)c1)C(Cl)(Cl)Cl)OCc1ccccc1 (stereo not shown)	5.27

Compound	hERG current change (%, negative = inhibition) at 1uM [%]
COC(=O)c1c(C)c(C)nc(N)c1C#N	11.8
COc1cccc(C2=NOC(C(=O)Nc3ccc4c(c3)OCO4)C2)c1OC (stereo not shown)	9.81
COc1ccc(-c2cc(C(=O)N/N=C/c3cccnc3)c3ccccc3n2)cc1	5.72
CCOC(=O)Cc1csc(SCC(=O)NC2CCCC(C)C2C)n1 (stereo not shown)	7.88
CCNc1nc(NCC)n2c(SCC(=O)Nc3ccc(F)cc3)nnc2n1	3.11
C#CCn1c(=NC(=O)c2ccc(Br)s2)sc2cc(NC(C)=O)ccc21	2.71
Cc1noc(C)c1C(=O)NC(C)c1ccc(Cl)cc1Cl (stereo not shown)	7.73
CCOC(=O)CNC(=O)CNC(=O)c1ccc(OC(C)C)cc1	11.7
Cc1ccc(C2=CSC3=NS(=O)(=O)CCN23)cc1	6.7
Cn1nnnc1SCC(=O)Nc1ccccc1-c1ccccc1	5.83
COc1cccc(-n2cc(C(=O)NC(C)C)c3ccccc3c2=O)c1	13.8
COc1ccc(-n2c(C)nnc2SCC(=O)NC2CC2)cc1	10.7
O=C(O)C1=C[C@H](c2ccc(Br)cc2)C[C@H](OCCCCO)O1	6.21
CN(CC(=O)N1CCCCC1)S(=O)(=O)c1cccc2nsnc12	10.8
O=c1cc(-c2ccccc2Cl)oc2c(NS(=O)(=O)c3cccs3)ccc(O)c12	-5.83
N#CC1=C(N)OC2=C(CCc3ccccc32)C1c1ccccc1Cl (stereo not shown)	19
CC(=O)Nn1cc2c(=O)n(C)c(=O)n(C)c2c1	-0.83
COC(=O)c1ccccc1NC(=O)n1cc(C)cn1	-2.41
COc1cccc(N(C(=O)c2csnn2)C(C(=O)NC2CCCC2)c2ccccc2)c1 (stereo not shown)	14.6
CNC(=O)C(=O)NCCc1ccc(Cl)cc1	11.3
Cc1cccc(CCNS(=O)(=O)c2ccc3c(c2)CCN3C(=O)CCC(=O)O)c1	19.2
O=C(NC12CC3CC(CC(C3)C1)C2)c1c(Cl)cccc1Cl	-30.9

Compound	hERG current change (%, negative = inhibition) at 1uM [%]
COc1cc(NC(=O)c2ccco2)c(OC)cc1NC(=O)CSc1ncc(-c2ccc(F)cc2)[nH]1	5.59
O=C(O)CCC(=O)Nc1ccc2c(c1)Cc1cc(NC(=O)CCC(=O)O)ccc1-2	5.93
CN(C)S(=O)(=O)c1cccc(NC(=O)COC(=O)c2cc(=O)c3ccccc3o2)c1	13.9
Cc1noc(C)c1COc1ccc(C(=O)OCC(=O)NC23CC4CC(CC(C4)C2)C3)cc1	13.6
O=C(NCC(c1cccs1)N1CCOCC1)C1CCN(S(=O)(=O)c2c(Cl)cccc2Cl)CC1 (stereo not shown)	8.2
CCCNC(=O)c1onc(CSc2ccc(F)cc2)c1C(=O)NCCC	14.4
Cc1ccc(-c2nnc(SCC(=O)N/N=C/c3ccccc3C(=O)O)n2C2CCCCC2)cc1	12.5
Cc1nn(C)cc1/C=N/NC(=O)c1ccc2c(c1)OCO2	5.98
Cn1c(O)c(/C=C/C=Nc2ccccc2)c(=O)n(C)c1=O	11.9
O=C(NCCN1CCN(Cc2ccccc2)CC1)C1CC(=O)N(C2CCCC2)C1 (stereo not shown)	2.39
CC(=O)Nc1cc(C(=O)N(C)Cc2ccco2)ccc1Sc1ccc(Cl)cc1	-4.85
CC(=O)OC1(c2ccc(C)cc2)CN2CCC1c1ccccc12.Cl (stereo not shown)	14.3
CC(=O)c1sccc1NC(=O)CC(C)(C)CC(=O)O	6.35
Cc1ccccc1CSCc1ccc(C(=O)NCCCN2CCOCC2)o1	-11.9
O=C(NCCc1c[nH]c2ccccc12)Nc1cccc2ccccc12	9.7
COc1ccc(C(O)P(=O)(OC(C)C)OC(C)C)cc1OC (stereo not shown)	14.2
COCCn1c(=O)[nH]c2cc(C(=O)N3CCN(c4ccccc4)CC3)ccc2c1=O	9.08
CCN(CC)CC(=O)Nc1ccc([N+](=O)[O-])cc1	-2.18
O=C(Nc1ccon1)c1nc[nH]c1C(=O)N1CCc2ccccc2C1	24.3
O=C(CN1CCN(c2ccccn2)CC1)Nc1ccc(OCc2ccccc2)cc1	0.172
O=C(CN(c1ccccc1)S(=O)(=O)c1ccc(F)cc1)N1CCCCCC1	-8
CCC[C@H]1COCCS(=O)(=O)N1Cc1ccccc1	5.11
